Experimental data as given in the supplement of paper PMC12217912.
Some of the results follow. The full chains were built here from the parent and the listed change. Inactive controls read about 0.05.

B1: TEV protease; numbered along this chain (parent)
chain: MGESLFKGPRDYNPISSSICHLTNESDGHTTSLYGIGFGPFIITNKHLFRRNNGTLVVQSLHGVFKVKDTTTLQQHLVDGRDMIIIRMPKDFPPFPQKLKFREPQREERICLVTTNFQTKSMSSMVSDTSCTFPSGDGIFWKHWIQTKDGQCGSPLVSTRDGFIVGIHSASNFTNTNNYFTSVPKNFMELLTNQEAQQWVSGWRLNADSVLWGGHKVFMVKPEEPFQPVKEATQL

Variants of: B1
Assay: raw area under fraction-flipped curve 0-4 h after induction (AUC4h, not background-subtracted), DNA-recorder readout of cleavage of the substrate (dimensionless); higher = more cleavage of the substrate by the protease variant
Conditions: temperature: 34 °C; time window: 0-4 h after rhamnose induction
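Note: Bxb1 expression induced with 0.2% (w/v) L-rhamnose at OD600 near 0.5, cultures sampled hourly, flipped fraction per protease–substrate barcode pair counted by paired-end Illumina sequencing.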

Row | Variant | area with substrate ENLYFQN | area with substrate ENLYFQS | area with substrate ENLYFQT | area with substrate ENLYFQV | area with substrate ENLYFQI | area with substrate ENLYFQK | area with substrate ENLYFQL | area with substrate ENLYFQM | area with substrate ENLYFQP | area with substrate ENLYFQR | area with substrate ENLYFQY | area with substrate ENLYFQW | area with substrate ENLYFQH
1 | G8Q | 0.0826 | 0.113 | 0.0698 | 0.0561 | – | – | – | – | – | – | – | – | –
2 | E189A | 0.0784 | 0.098 | 0.0689 | 0.0536 | 0.0715 | – | – | – | – | – | – | – | –
3 | R81F | 0.0751 | 0.0862 | 0.0527 | 0.065 | 0.06 | 0.0676 | 0.0572 | 0.0707 | 0.0504 | 0.0574 | 0.0656 | – | –
4 | M122T | 0.0897 | 0.106 | – | 0.0565 | 0.0559 | 0.0897 | – | 0.0915 | 0.0563 | 0.0566 | – | 0.049 | –
5 | V183R | – | 0.0521 | – | – | 0.0431 | – | 0.0468 | 0.0494 | 0.0617 | – | – | 0.0455 | –
6 | W199L | 0.0651 | 0.0713 | – | – | 0.0443 | – | – | – | – | – | 0.0576 | – | 0.0558
7 | D69N | 0.0702 | 0.0999 | 0.0575 | 0.0519 | 0.0567 | – | 0.0613 | – | 0.0606 | 0.0479 | 0.0469 | 0.073 | –
